Source: the supplement of paper PMC7580552
Counter-ions that a name gives are not always drawn. This is one part of the list. Repeats are few or missing, and single values can be far off.
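Further: stationary (unshaken) cultures in 96-well plates, started at OD600 0.05 from mid-exponential cells, with compounds supplied from DMSO stocks.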

What follows are compounds tested on Escherichia coli W3110 (assay: planktonic growth (OD600) relative to untreated control; higher = more growth). Settings: 10 µM; 20-24 h; 30 °C; TB.
`CC[C@H](C)C(=O)O[C@H]1C[C@H](O)C=C2C=C[C@H](C)[C@H](CC[C@@H](O)C[C@@H](O)CC(=O)O)[C@H]21` [Pravastatin] gave a planktonic growth of 80%.
Work on `CCOCCn1c(N2CCCN(C)CC2)nc2ccccc21` [Emedastine] yielded a planktonic growth of 102%.
`O=C(O)Cc1cc(I)c(Oc2ccc(O)c(I)c2)c(I)c1` [Tiratricol, 3,3',5-triiodothyroacetic acid] gave a planktonic growth of 110%.
Compound `COCCCOc1ccnc(C[S+]([O-])c2nc3ccccc3[nH]2)c1C` (centres undefined) [Rabeprazole Sodium salt] has a planktonic growth of 98%.
`O=C(CCCCC(=O)Nc1c(I)cc(I)c(C(=O)O)c1I)Nc1c(I)cc(I)c(C(=O)O)c1I` [Iodipamide] gave a planktonic growth of 98%.
`CNCC[C@@H](Oc1ccccc1C)c1ccccc1` [Tomoxetine hydrochloride] gave a planktonic growth of 107%.
Compound `CCCCC1C(=O)N(c2ccccc2)N(c2ccccc2)C1=O` [Phenylbutazone] has a planktonic growth of 92%.
Work on `CC(=O)/N=c1/sc(S(N)(=O)=O)nn1C` [Methazolamide] yielded a planktonic growth of 104%.
`N=C(N)N1CCc2ccccc2C1` [Debrisoquin sulfate] was tested, and the planktonic growth was 92%.
In the case of `CCCc1nc2c(C)cc(-c3nc4ccccc4n3C)cc2n1Cc1ccc(-c2ccccc2C(=O)O)cc1` [Telmisartan], the planktonic growth is reported as 96%.
`COCCCOc1cc(C[C@@H](C[C@H](N)[C@@H](O)C[C@H](C(=O)NCC(C)(C)C(N)=O)C(C)C)C(C)C)ccc1OC` [Aliskiren hemifumarate] showed a planktonic growth of 88%.
With `CCCCOC(=O)c1ccc(O)cc1` [Butylparaben] the planktonic growth was 93%.
Work on `CC(=O)Nc1ccc(OCC(O)CNC(C)C)cc1` (centres undefined) [Practolol] yielded a planktonic growth of 93%.
Work on `CN1[C@@H]2CC[C@H]1C[C@@H](OC(c1ccccc1)c1ccccc1)C2` [Benztropine mesylate] yielded a planktonic growth of 97%.
`CCCC(=O)Nc1ccc(OCC(O)CNC(C)C)c(C(C)=O)c1` (centres undefined) [Acebutolol hydrochloride] showed a planktonic growth of 95%.
With `O=C(Nc1ccccc1)OCC(CN1CCCCC1)OC(=O)Nc1ccccc1` (centres undefined) [Diperodon hydrochloride] the planktonic growth was 92%.
With `Cc1c(F)c(N2CCNC(C)C2)cc2c1c(=O)c(C(=O)O)cn2C1CC1` (centres undefined) [Grepafloxacin] the planktonic growth was 6%.
For `N=C(N=C(N)N)N1CCOCC1` [Moroxidine hydrochloride], the planktonic growth was 108%.
Compound `CC(=O)OCC(=O)[C@@]12OC3(CCCC3)O[C@@H]1C[C@H]1[C@@H]3CCC4=CC(=O)C=C[C@]4(C)[C@@]3(F)[C@@H](O)C[C@@]12C` [Amcinonide] has a planktonic growth of 100%.
Compound `COC(=O)CCc1ccc(OCC(O)CNC(C)C)cc1` (centres undefined) [Esmolol hydrochloride] has a planktonic growth of 111%.
`CN1C(C(=O)Nc2ccccn2)=C(O)c2ccccc2S1(=O)=O` [Piroxicam] gave a planktonic growth of 94%.
Work on `COCCOC(=O)C1=C(C)NC(C)=C(C(=O)OC(C)C)C1c1cccc([N+](=O)[O-])c1` (centres undefined) [Nimodipine] yielded a planktonic growth of 96%.
`NC(=O)OCC(O)COc1ccc(Cl)cc1` (centres undefined) [Chlorphensin carbamate] was tested, and the planktonic growth was 96%.
In the case of `C[C@]12CCC(=O)C=C1C=C[C@@H]1[C@@H]2CC[C@@]2(C)[C@H]1CC[C@@]21CCC(=O)O1` [Canrenone], the planktonic growth is reported as 110%.
In the case of `O=C(CCCN1CCC(O)(c2ccc(Cl)cc2)CC1)c1ccc(F)cc1` [Haloperidol], the planktonic growth is reported as 93%.
In the case of `Cc1ccc(C)c(OCCCC(C)(C)C(=O)O)c1` [Gemfibrozil], the planktonic growth is reported as 91%.
For `O=C(O)C[C@H](O)C[C@H](O)/C=C/c1c(C2CC2)nc2ccccc2c1-c1ccc(F)cc1` [Pitavastatin calcium], the planktonic growth was 107%.
Compound `CNCCC=C1c2ccccc2C=Cc2ccccc21` [Norcyclobenzaprine] has a planktonic growth of 97%.
For `CC(C[N+](C)(C)C)OC(N)=O` (centres undefined) [Bethanechol chloride], the planktonic growth was 95%.
Work on `Cc1cn([C@H]2C[C@H](N=[N+]=[N-])[C@@H](CO)O2)c(=O)[nH]c1=O` [Zidovudine, AZT] yielded a planktonic growth of 22%.
Work on `COc1ccc([C@@H]2Sc3ccccc3N(CCN(C)C)C(=O)[C@@H]2OC(C)=O)cc1` [Diltiazem hydrochloride] yielded a planktonic growth of 91%.
`COc1ccc2c(c1)C(=O)N(CCc1ccc(S(=O)(=O)NC(=O)NC3CCCCC3)cc1)C(=O)C2(C)C` [Gliquidone] showed a planktonic growth of 101%.
Compound `CN(C)CCN(Cc1ccc(Cl)cc1)c1ccccn1` [Chloropyramine hydrochloride] has a planktonic growth of 110%.
For `NS(=O)(=O)Cc1noc2ccccc12` [Zonisamide], the planktonic growth was 93%.
Work on `Cc1c(NC(C)C)c(=O)n(-c2ccccc2)n1C` [Isopyrin hydrochloride] yielded a planktonic growth of 108%.
Compound `NCCc1cc[nH]n1` [Betazole hydrochloride] has a planktonic growth of 100%.
In the case of `CCCNC(C)C(=O)Nc1c(C)csc1C(=O)OC` (centres undefined) [Articaine hydrochloride], the planktonic growth is reported as 98%.
`COc1cccc(N(C)C(=S)Oc2ccc3c(c2)CCCC3)n1` [Liranaftate] showed a planktonic growth of 108%.
`NC(=O)N1c2ccccc2CC(=O)c2ccccc21` [Oxcarbazepine] was tested, and the planktonic growth was 102%.
For `CC(C)Cn1cnc2c(N)nc3ccccc3c21` [Imiquimod], the planktonic growth was 93%.
`CC[N+](CC)(CC(=O)Nc1c(C)cccc1C)Cc1ccccc1` [Denatonium benzoate] was tested, and the planktonic growth was 111%.
With `COc1cc(NS(=O)(=O)c2ccc(N)cc2)nc(OC)n1` [Sulfadimethoxine] the planktonic growth was 71%.
Work on `CC1(C)O[C@@H]2[C@@H](CO[C@@]3(COS(N)(=O)=O)OC(C)(C)O[C@@H]23)O1` [Topiramate] yielded a planktonic growth of 102%.
`CN(C)c1cc(NC(=O)CNC(C)(C)C)c(O)c2c1C[C@H]1C[C@H]3[C@H](N(C)C)C(O)=C(C(N)=O)C(=O)[C@@]3(O)C(O)=C1C2=O` [Tigecycline] was tested, and the planktonic growth was 117%.
Compound `Cc1cccc(Nc2ccncc2S(=O)(=O)NC(=O)NC(C)C)c1` [Torsemide] has a planktonic growth of 95%.
In the case of `CCCCCCCCNC(C)C(O)c1ccc(SC(C)C)cc1` (centres undefined) [Suloctidil], the planktonic growth is reported as 93%.
In the case of `CC(=O)CC(c1ccc([N+](=O)[O-])cc1)c1c(O)c2ccccc2oc1=O` (centres undefined) [Acenocoumarol], the planktonic growth is reported as 91%.
For `S=c1[nH]cnc2nc[nH]c12` [Mercaptopurine], the planktonic growth was 86%.
Work on `CN(Cc1ccc(C(C)(C)C)cc1)Cc1cccc2ccccc12` [Butenafine Hydrochloride] yielded a planktonic growth of 115%.
Work on `CC(C)NC(=N)NC(=N)Nc1ccc(Cl)cc1` [Proguanil hydrochloride] yielded a planktonic growth of 97%.
With `Cc1nnc(SCC2=C(C(=O)O)N3C(=O)[C@@H](NC(=O)Cn4cnnn4)[C@H]3SC2)s1` [Cefazolin sodium salt] the planktonic growth was 20%.
With `O=c1[nH]c(=O)n([C@H]2C[C@H](O)[C@@H](CO)O2)cc1C(F)(F)F` [Trifluridine] the planktonic growth was 93%.
With `COc1ccc2c3c1O[C@H]1C[C@@H](O)C=C[C@@]31CCN(C)C2` [Galanthamine hydrobromide] the planktonic growth was 94%.
Work on `CC(C)(Sc1cc(C(C)(C)C)c(O)c(C(C)(C)C)c1)Sc1cc(C(C)(C)C)c(O)c(C(C)(C)C)c1` [Probucol] yielded a planktonic growth of 105%.
Compound `Nc1c(Br)cc(Br)cc1CN[C@H]1CC[C@H](O)CC1` [Ambroxol hydrochloride] has a planktonic growth of 103%.
Compound `Cn1ccnc1S` [Methimazole] has a planktonic growth of 90%.
Work on `COc1cc(OC)c(C(=O)CCCN2CCCC2)c(OC)c1` [Buflomedil hydrochloride] yielded a planktonic growth of 98%.
`N#CC(c1ccc(Cl)cc1)c1c(Cl)cc(-n2ncc(=O)[nH]c2=O)cc1Cl` (centres undefined) [Diclazuril] showed a planktonic growth of 94%.
For `COc1ccc2c(c1)N(C[C@H](C)CN(C)C)c1ccccc1S2` [Methotrimeprazine maleat salt], the planktonic growth was 96%.
`CCCN(CCC)C(=O)C(CCC(=O)O)NC(=O)c1ccccc1` (centres undefined) [Proglumide] showed a planktonic growth of 105%.
In the case of `CCN1C(=O)NC(c2ccccc2)C1=O` (centres undefined) [Ethotoin], the planktonic growth is reported as 93%.
`CN1CCC(=C2c3ccccc3CC(=O)c3sccc32)CC1` [Ketotifen fumarate] gave a planktonic growth of 94%.
`CN1CCCC(CC2c3ccccc3Sc3ccccc32)C1` (centres undefined) [Metixene hydrochloride] showed a planktonic growth of 95%.
`COc1ccccc1N1CCN(CC(O)COc2cccc3ccccc23)CC1` (centres undefined) [Naftopidil dihydrochloride] showed a planktonic growth of 99%.
`Cn1c(=O)c2c(ncn2CC(=O)O)n(C)c1=O` [Acefylline] showed a planktonic growth of 97%.
`CO[C@H]1C[C@H](O[C@H]2[C@H](C)[C@@H](O[C@@H]3O[C@H](C)C[C@H](N(C)C)[C@H]3OC(C)=O)[C@@H](C)C[C@@]3(CO3)C(=O)[C@H](C)[C@@H](OC(C)=O)[C@@H](C)[C@@H](C)OC(=O)[C@@H]2C)O[C@@H](C)[C@@H]1OC(C)=O` [Troleandomycin] was tested, and the planktonic growth was 98%.
`Cc1cc(C(=O)NNCc2ccccc2)no1` [Isocarboxazid] showed a planktonic growth of 96%.
`CC(C)(Oc1ccc(Cl)cc1)C(=O)O` [Clofibric acid] showed a planktonic growth of 90%.
Compound `CN(C)CC/C=C1\c2ccccc2CSc2ccccc21` [Dosulepin hydrochloride] has a planktonic growth of 104%.
`CC1CCc2c(N3CCC(O)CC3)c(F)cc3c(=O)c(C(=O)O)cn1c23` (centres undefined) [Nadifloxacin] showed a planktonic growth of 35%.
`Cc1ccc(-c2ncc(Cl)cc2-c2ccc(S(C)(=O)=O)cc2)cn1` [Etoricoxib] gave a planktonic growth of 102%.
Work on `NC12CC3CC(CC(C3)C1)C2` [Adamantamine fumarate] yielded a planktonic growth of 103%.
Compound `Cc1cc(=O)n(-c2ccccc2)n1C` [Antipyrine] has a planktonic growth of 97%.
In the case of `Clc1ccc(COC(Cn2ccnc2)c2ccc(Cl)cc2Cl)c(Cl)c1` (centres undefined) [Miconazole], the planktonic growth is reported as 79%.
In the case of `CN1CCN(C2=Nc3cc(Cl)ccc3Nc3ccccc32)CC1` [Clozapine], the planktonic growth is reported as 96%.
`C[C@@H]1NC(=O)NC1=O` [Methylhydantoin-5-(L)] showed a planktonic growth of 95%.
Work on `CCOC(=O)C(C)(C)Oc1ccc(Cl)cc1` [Clofibrate] yielded a planktonic growth of 110%.
Compound `CO[C@@]1(NC(=O)CSCC#N)C(=O)N2C(C(=O)O)=C(CSc3nnnn3C)CS[C@@H]21` [Cefmetazole sodium salt] has a planktonic growth of 18%.
`C[C@@H]1[C@H](O)[C@@H](C)/C=C/C=C/C=C/C=C/C=C/C=C/C=C/[C@H](O[C@@H]2O[C@H](C)[C@@H](O)[C@H](N)[C@@H]2O)C[C@@H]2O[C@](O)(C[C@@H](O)C[C@@H](O)[C@H](O)CC[C@@H](O)C[C@@H](O)CC(=O)O[C@H]1C)C[C@H](O)[C@H]2C(=O)O` [Amphotericin B] gave a planktonic growth of 118%.
